{"source": "the supplement of paper PMC8728848", "experiment_in_all_cases": "glycan array binding signal (z-score within array); higher = stronger binding", "conditions_in_all_cases": "glycan notation: IUPAC condensed, linker removed", "key": {"[1]": {"molecular_target": "Fuc(a1-2)[Gal(a1-3)]Gal(b1-4)GlcNAc(b1-2)Man(a1-3)[Fuc(a1-2)[Gal(a1-3)]Gal(b1-4)GlcNAc(b1-2)Man(a1-6)]Man(b1-4)GlcNAc(b1-4)[Fuc(a1-6)]GlcNAc", "method_in_brief": "(§1)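 The Consortium for Functional Glycomics database supplied 3228 glycan arrays, of which those lacking an available protein sequence were dropped. The binding signal, a within-array Z-score, was averaged across arrays of the same protein sequence and across linkers. Negative scores can be read as non-binding.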"}, "[2]": {"molecular_target": "Fuc(a1-2)[Gal(a1-3)]Gal(b1-4)GlcNAc(b1-3)GalNAc", "method_in_brief": "as §1"}, "[3]": {"molecular_target": "Fuc(a1-2)[Gal(a1-3)]Gal(b1-4)GlcNAc(b1-3)[Fuc(a1-2)[Gal(a1-3)]Gal(b1-4)GlcNAc(b1-6)]GalNAc", "method_in_brief": "as §1"}, "[4]": {"molecular_target": "Fuc(a1-2)[Gal(a1-3)]Gal(b1-4)GlcNAc(b1-6)GalNAc", "method_in_brief": "as §1"}, "[5]": {"molecular_target": "Fuc(a1-2)[Gal(a1-3)]Gal(b1-4)[Fuc(a1-3)]Glc", "method_in_brief": "as §1"}, "[6]": {"molecular_target": "Fuc(a1-2)[Gal(a1-3)]Gal(b1-4)[Fuc(a1-3)]GlcNAc", "method_in_brief": "as §1"}, "[7]": {"molecular_target": "Fuc(a1-2)[Gal(a1-3)]Gal(b1-4)[Fuc(a1-3)]GlcNAc(b1-3)GalNAc", "method_in_brief": "as §1"}, "[8]": {"molecular_target": "Fuc(a1-2)[Gal(a1-4)]Gal(b1-4)GlcNAc", "method_in_brief": "as §1"}, "[9]": {"molecular_target": "Fuc(a1-2)[GalNAc(a1-3)]Gal", "method_in_brief": "as §1"}, "[10]": {"molecular_target": "Fuc(a1-2)[GalNAc(a1-3)]Gal(b1-3)GalNAc(a1-3)[Fuc(a1-2)]Gal(b1-4)GlcNAc", "method_in_brief": "as §1"}, "[11]": {"molecular_target": "Fuc(a1-2)[GalNAc(a1-3)]Gal(b1-3)GalNAc(b1-3)Gal(a1-4)Gal(b1-4)Glc", "method_in_brief": "as §1"}, "[12]": {"molecular_target": "Fuc(a1-2)[GalNAc(a1-3)]Gal(b1-3)GlcNAc", "method_in_brief": "as §1"}, "[13]": {"molecular_target": "Fuc(a1-2)[GalNAc(a1-3)]Gal(b1-3)GlcNAc(b1-2)Man(a1-3)[Fuc(a1-2)[GalNAc(a1-3)]Gal(b1-3)GlcNAc(b1-2)Man(a1-6)]Man(b1-4)GlcNAc(b1-4)GlcNAc", "method_in_brief": "as §1"}, "[14]": {"molecular_target": "Fuc(a1-2)[GalNAc(a1-3)]Gal(b1-3)GlcNAc(b1-2)Man(a1-3)[Fuc(a1-2)[GalNAc(a1-3)]Gal(b1-3)GlcNAc(b1-2)Man(a1-6)]Man(b1-4)GlcNAc(b1-4)[Fuc(a1-6)]GlcNAc", "method_in_brief": "as §1"}, "[15]": {"molecular_target": "Fuc(a1-2)[GalNAc(a1-3)]Gal(b1-3)GlcNAc(b1-3)GalNAc", "method_in_brief": "as §1"}, "[16]": {"molecular_target": "Fuc(a1-2)[GalNAc(a1-3)]Gal(b1-3)GlcNAc(b1-6)GalNAc", "method_in_brief": "as §1"}, "[17]": {"molecular_target": "Fuc(a1-2)[GalNAc(a1-3)]Gal(b1-4)Glc", "method_in_brief": "as §1"}, "[18]": {"molecular_target": "Fuc(a1-2)[GalNAc(a1-3)]Gal(b1-4)GlcNAc", "method_in_brief": "as §1"}, "[19]": {"molecular_target": "Fuc(a1-2)[GalNAc(a1-3)]Gal(b1-4)GlcNAc(b1-2)Man", "method_in_brief": "as §1"}, "[20]": {"molecular_target": "Fuc(a1-2)[GalNAc(a1-3)]Gal(b1-4)GlcNAc(b1-2)Man(a1-3)[Fuc(a1-2)[GalNAc(a1-3)]Gal(b1-4)GlcNAc(b1-2)Man(a1-6)]Man(b1-4)GlcNAc(b1-4)GlcNAc", "method_in_brief": "as §1"}, "[21]": {"molecular_target": "Fuc(a1-2)[GalNAc(a1-3)]Gal(b1-4)GlcNAc(b1-2)Man(a1-3)[Fuc(a1-2)[GalNAc(a1-3)]Gal(b1-4)GlcNAc(b1-2)Man(a1-6)]Man(b1-4)GlcNAc(b1-4)[Fuc(a1-6)]GlcNAc", "method_in_brief": "as §1"}, "[22]": {"molecular_target": "Fuc(a1-2)[GalNAc(a1-3)]Gal(b1-4)GlcNAc(b1-3)Gal(b1-4)GlcNAc", "method_in_brief": "as §1"}, "[23]": {"molecular_target": "Fuc(a1-2)[GalNAc(a1-3)]Gal(b1-4)GlcNAc(b1-3)Gal(b1-4)GlcNAc(b1-3)Gal(b1-4)GlcNAc", "method_in_brief": "as §1"}, "[24]": {"molecular_target": "Fuc(a1-2)[GalNAc(a1-3)]Gal(b1-4)GlcNAc(b1-3)GalNAc", "method_in_brief": "as §1"}, "[25]": {"molecular_target": "Fuc(a1-2)[GalNAc(a1-3)]Gal(b1-4)GlcNAc(b1-3)[Fuc(a1-2)[GalNAc(a1-3)]Gal(b1-4)GlcNAc(b1-6)]GalNAc", "method_in_brief": "as §1"}, "[26]": {"molecular_target": "Fuc(a1-2)[GalNAc(a1-3)]Gal(b1-4)GlcNAc(b1-6)GalNAc", "method_in_brief": "as §1"}, "[27]": {"molecular_target": "Fuc(a1-2)[GalNAc(a1-3)]Gal(b1-4)[Fuc(a1-3)]GlcNAc", "method_in_brief": "as §1"}, "[28]": {"molecular_target": "Fuc(a1-2)[GalNAc(a1-3)]Gal(b1-4)[Fuc(a1-3)]GlcNAc(b1-3)GalNAc", "method_in_brief": "as §1"}, "[29]": {"molecular_target": "Fuc(a1-2)[GalNAc(a1-4)]Gal(b1-4)GlcNAc", "method_in_brief": "as §1"}, "[30]": {"molecular_target": "Fuc(a1-2)[GalNAc(b1-3)]Gal", "method_in_brief": "as §1"}}, "note": "The list shows a part of the results.", "data": [{"binder": "B725 (Bifidobacterium sp) (protein) MNNTTRAVIATAAIGALLIPLAGCGNTTTSSGKTELTVWSWDASIDRAAKSFMKANPDITVKVSNVGSTEETYTALNNAAQAGSGLPDVTLIEYLAIPQFVHSDTLMDLSKVYNTAKLKDTFTPGTWNSVNINGGLYAMPADSGPMAYFYDKDVFDKAGISEPPTTWDEFYEDAKKIRATGSYITSDSGDAGLFNAMMWAMGGHAYKLNDDKLTINIAKDKGAQRFMDLWQKMRDEDLIDVHTKTWTDDWMKSLGDGSIASLISGAWMANNLLQGVPQATGKFRVALLPTIDGTPINGEYGGSGLAITKKIPDGKLDAAKKFVEYVTTNDEGIDARVSNGSFPATTKTLNQKDFLAKTTLRNTDGSDNEFFGGQKYNEIFSQAAKDVTGKWEFLPFEPYARSVYNDNMGSFFAGKTSFRTAADNWQKALKDYAKDQGFTVQ", "values": [{"measurement": "glycan array binding signal (z-score)", "setting": "[1]", "result": -0.188}, {"measurement": "glycan array binding signal (z-score)", "setting": "[2]", "result": -0.222}, {"measurement": "glycan array binding signal (z-score)", "setting": "[3]", "result": -0.159}, {"measurement": "glycan array binding signal (z-score)", "setting": "[4]", "result": -0.235}, {"measurement": "glycan array binding signal (z-score)", "setting": "[5]", "result": -0.22}, {"measurement": "glycan array binding signal (z-score)", "setting": "[6]", "result": -0.22}, {"measurement": "glycan array binding signal (z-score)", "setting": "[7]", "result": -0.208}, {"measurement": "glycan array binding signal (z-score)", "setting": "[8]", "result": -0.23}, {"measurement": "glycan array binding signal (z-score)", "setting": "[9]", "result": -0.228}, {"measurement": "glycan array binding signal (z-score)", "setting": "[10]", "result": -0.228}, {"measurement": "glycan array binding signal (z-score)", "setting": "[11]", "result": -0.224}, {"measurement": "glycan array binding signal (z-score)", "setting": "[12]", "result": -0.221}, {"measurement": "glycan array binding signal (z-score)", "setting": "[13]", "result": -0.209}, {"measurement": "glycan array binding signal (z-score)", "setting": "[14]", "result": -0.205}, {"measurement": "glycan array binding signal (z-score)", "setting": "[15]", "result": -0.213}, {"measurement": "glycan array binding signal (z-score)", "setting": "[16]", "result": -0.224}, {"measurement": "glycan array binding signal (z-score)", "setting": "[17]", "result": -0.222}, {"measurement": "glycan array binding signal (z-score)", "setting": "[18]", "result": -0.229}, {"measurement": "glycan array binding signal (z-score)", "setting": "[19]", "result": -0.219}, {"measurement": "glycan array binding signal (z-score)", "setting": "[20]", "result": -0.195}, {"measurement": "glycan array binding signal (z-score)", "setting": "[21]", "result": -0.222}, {"measurement": "glycan array binding signal (z-score)", "setting": "[22]", "result": -0.218}, {"measurement": "glycan array binding signal (z-score)", "setting": "[23]", "result": 2.04}, {"measurement": "glycan array binding signal (z-score)", "setting": "[24]", "result": -0.24}, {"measurement": "glycan array binding signal (z-score)", "setting": "[25]", "result": -0.22}, {"measurement": "glycan array binding signal (z-score)", "setting": "[26]", "result": -0.233}, {"measurement": "glycan array binding signal (z-score)", "setting": "[27]", "result": -0.217}, {"measurement": "glycan array binding signal (z-score)", "setting": "[28]", "result": -0.209}, {"measurement": "glycan array binding signal (z-score)", "setting": "[29]", "result": -0.229}, {"measurement": "glycan array binding signal (z-score)", "setting": "[30]", "result": -0.229}]}]}
